Test results reported in the supplement of paper PMC11417369.
Some of the results follow.

These sequences were tested on PfHDP1 homeodomain (GST-tagged) (assay: gcPBM binding intensity (ln(normalized median fluorescence intensity)); higher = stronger DNA binding).
Procedure, shortened: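 For binding intensity, the highest Masliner-normalised natural-log median intensity across replicate spots of either probe orientation was taken. Protein bound to the array was stained with Alexa488 anti-GST antibody and scanned at 488 nm. The protein, GST-tagged P. falciparum DNA-binding domains from E. coli at about 25 μg on average, had been applied for 1 h to an Agilent 4 × 180k array of primer-extended double-stranded 36-bp intergenic genomic probes and negative controls.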

First: TATACTGATAAAAAAAGTACTAGAGTTTGTAAAAAT [XGTACX_site3934]
Second: AATTTTAATTTTTTGACACACATATAATATATATAT [CACACA_site3978]
The “gcPBM binding intensity (ln)” value of the first is lower: 6.65 for the first, 7.86 for the second.

Going from “TTATATGTCAATTTGCGTACATACATAATTACATAT [XGTACX_site1546]” to “ATAAATTTACTTGATTGTACATTTCTTAGTTGTATT [XGTACX_site3057]”, the “gcPBM binding intensity (ln)” value rises from 6.34 to 6.35.

Compared with “CAAAGACACAAACACACACACACATACATACATACA [CACACA_site453]”, “TTTTATATATTCAATTGTACATGTATTTTTTTTTTT [XGTACX_site3584]” is lower in “gcPBM binding intensity (ln)” value: 7.7 for the first, 6.54 for the second.

Compared with “TATGGGTATGTATTCACACATAACAAAAATATCAAA [CACACA_site5059]”, “ATATATATATATAACACACGCAAAAAAATTAAATAA [CACACA_site1400]” is higher in “gcPBM binding intensity (ln)” value: 6.58 for the first, 8.99 for the second.

Going from “ATGCAATAAATATACACACACAAATCTATATTTATA [CACACA_site7179]” to “TTTTTTTTGTAGAATTGTACTTATAAAATATATATA [XGTACX_site2116]”, the “gcPBM binding intensity (ln)” value falls from 7 to 6.25.

Compared with “AAAAAATGGATGATCACACACTTCATAAAAGTTGCA [CACACA_site7109]”, “AGTTCAAGGATTAAGACACACATATAAATAAATAAA [CACACA_site3662]” is higher in “gcPBM binding intensity (ln)” value: 6.04 for the first, 6.58 for the second.

Compared with “AATTATTATATATATATATATATATATTTATATATT [GTGCAC_negctrl_site387]”, “AAATAAAATAATTATAATACTAAAAATAATACATAA [GTGCAC_negctrl_site106]” is lower in “gcPBM binding intensity (ln)” value: 6.84 for the first, 6.39 for the second.

First: AAAACTTTTAGTTATACACACAACATAGAAAATATT [CACACA_site6287]
Second: AATGAGCGTTAAAAATGTACAGAAAATTGGAATTAT [XGTACX_site5743]
The “gcPBM binding intensity (ln)” value of the first is lower: 6.68 for the first, 6.75 for the second.

Going from “CTCCTACAAATATGTAGTACATTCAAAATAAATACC [XGTACX_site8207]” to “AACAATCAAATAGACACACACACACCCAAACATAAA [CACACA_site2757]”, the “gcPBM binding intensity (ln)” value rises from 6.63 to 6.98.

Compared with “CATTATGTTGTAAATACACACATACCTATACATACA [CACACA_site6485]”, “TTTTTTTTTTTATCTGCACACCCTTTTGTGAATATT [CACACA_site789]” is higher in “gcPBM binding intensity (ln)” value: 6.74 for the first, 7.77 for the second.

Going from “ACGATATTTTTGGTGACACACATATATATATATATA [CACACA_site126]” to “TCTGAGAATGATAAAAAAAAAAAAAATGAAAAATTA [CACACA_negctrl_site1478]”, the “gcPBM binding intensity (ln)” value falls from 9.39 to 6.

Compared with “TATTTATTTATATTTACACACATTCATATAAATTCA [CACACA_site7628]”, “AACATTATAGGACACACACACACATATATATATATA [CACACA_site4721]” is higher in “gcPBM binding intensity (ln)” value: 6.87 for the first, 9.16 for the second.

Compared with “CTTATACATTATTAACGTACATGTTATATGAATAAC [XGTACX_site5752]”, “TTTTTTTTTTTTTTTTTTTTTTTTAAATGCTTCTAA [TGCATGCA_negctrl_site253]” is higher in “gcPBM binding intensity (ln)” value: 6.19 for the first, 6.26 for the second.

First: GTCACATTGTTATATTGTACAAATGTCGTTCTTTTT [XGTACX_site8098]
Second: CACTATCAATATATATGTACATATATATATATATAT [XGTACX_site7854]
The “gcPBM binding intensity (ln)” value of the first is lower: 6.49 for the first, 9.29 for the second.

Compared with “ATATAAAAATATATTAATATAAATAAATGGACATAT [XGTACX_negctrl_site488]”, “TAAATATATAAATACACACAAACATACATATATATA [CACACA_site4050]” is higher in “gcPBM binding intensity (ln)” value: 6.68 for the first, 6.89 for the second.

Compared with “AAAAAAAAAAAATTCACACACATATAAAAAATTAAG [CACACA_site728]”, “GTAAAAAATATGAATACACACATAAAGGAAATAACA [CACACA_site1997]” is higher in “gcPBM binding intensity (ln)” value: 6.42 for the first, 7.39 for the second.

First: TAATATATAAGTATTTGTACATATTCATTCATCTAT [XGTACX_site2935]
Second: TTTTTTTTTTTTTTTTTTTTTTTTGGGTCCCATACA [CACACA_negctrl_site913]
The “gcPBM binding intensity (ln)” value of the first is lower: 6.03 for the first, 6.36 for the second.

First: AAAAAAAAAAAAAAAAGTACAGACGTCAAAAAAAAA [XGTACX_site4817]
Second: AACAAATAAGATAAATGACTTAACAAAAGAAAAAAG [CACACA_negctrl_site1409]
The “gcPBM binding intensity (ln)” value of the first is lower: 6.17 for the first, 6.53 for the second.

First: TTTTAATTATATTATGCACACACAATTGGAAAAAAA [CACACA_site8598]
Second: ATTTGGCATAAACACACACACACACCCACCCACATA [CACACA_site8096]
The “gcPBM binding intensity (ln)” value of the first is higher: 10.2 for the first, 7.15 for the second.

Going from TTTTTATTGAGAACAGTGCAAATAACAAAAAAAAAA to “TTATAATAAATATGAAGTACTATAAATATGGTATAT [XGTACX_site5448]”, the “gcPBM binding intensity (ln)” value falls from 8.72 to 6.39.

First: ATCGCATAAAGACAAGAACACACATATATATTGTAG [CACACA_site9229]
Second: AATAAATATAGGAATACACACAATATAAATGTATTG [CACACA_site3366]
The “gcPBM binding intensity (ln)” value of the first is higher: 6.63 for the first, 6.35 for the second.

Going from “CACTAAAATGGACACACACACACACCGATATATATA [CACACA_site6139]” to “TATTTTTTTGTGTTTGGTACACACGTTATAAAAAAT [XGTACX_site2655]”, the “gcPBM binding intensity (ln)” value falls from 7 to 6.39.

Compared with “CTAGCAAATACATACACACACACACCCATACATATA [CACACA_site3496]”, “ACAACAATATGGAATTGTACATATATATATAAATAT [XGTACX_site3139]” is lower in “gcPBM binding intensity (ln)” value: 7 for the first, 6.61 for the second.

Compared with “GAACAAATAAAAAGGAGTACAATCAAATCTACGTAT [XGTACX_site343]”, “TACACAAAACATAAAAGTACATAATAATAAAGTTAA [XGTACX_site8872]” is higher in “gcPBM binding intensity (ln)” value: 6.33 for the first, 6.56 for the second.

Compared with “TAAATAAATACATACACACACATACATATATATATA [CACACA_site3129]”, “TTATTGTTTATTAAATGTACAGATTCGTTAAAATTA [XGTACX_site3041]” is lower in “gcPBM binding intensity (ln)” value: 8.97 for the first, 6.35 for the second.

First: AGTATACATTCATTTTGTACTCAATGATTTGATAAC [XGTACX_site6787]
Second: ATAATTATATTCCATACACACATATATTTAAAGGTT [CACACA_site2957]
The “gcPBM binding intensity (ln)” value of the first is lower: 6.31 for the first, 6.85 for the second.

Going from “AGGAATAAATAATTAACACACACAATCTTTTTTTTT [CACACA_site9027]” to “TAATAAGTATAAAATAGTACATATAAATATATCAAA [XGTACX_site8834]”, the “gcPBM binding intensity (ln)” value falls from 6.56 to 6.06.

First: AAATAAAAAAACTATTGTACTGAATACAAATTAAAT [XGTACX_site3793]
Second: ATAATATTAGTAAACACACTCAAATTATATATGATA [CACACA_site5721]
The “gcPBM binding intensity (ln)” value of the first is higher: 6.35 for the first, 6.28 for the second.

Compared with “ACTTTTTCACATAAAAATGATCCGATTAGTAATAAT [XGTACX_negctrl_site248]”, “CATATATAAAATATATGTACTTATAGAACATAATTT [XGTACX_site1936]” is lower in “gcPBM binding intensity (ln)” value: 6.37 for the first, 6.09 for the second.

Compared with “CATTTTTTAAGCATCACACACGAAAGAACAAAGTGG [CACACA_site4755]”, “TGGAAAATTATAAGGTGTACATATAAGCTATTATAT [XGTACX_site118]” is lower in “gcPBM binding intensity (ln)” value: 7.03 for the first, 6.41 for the second.

First: TTTTTTTTTTTAAGGTGTACAATAAAAATTTATGCA [XGTACX_site8860]
Second: ATGTTTTCAAAAATAAAACATATAAATAAATAAATA [TGCATGCA_negctrl_site226]
The “gcPBM binding intensity (ln)” value of the first is lower: 6.14 for the first, 6.35 for the second.

Compared with “TTACGAATGAATATATGTACATATATATATATATAT [XGTACX_site3790]”, “AATGTACACGCACCCACACACAAACAAATATAAATA [CACACA_site7319]” is lower in “gcPBM binding intensity (ln)” value: 9.45 for the first, 7.09 for the second.

First: TTGCTTTTCATTTATTGTACATACCCAGTAGGATAA [XGTACX_site3939]
Second: GACATAGTATTAAGTTGTACATATATAAAAATAAAT [XGTACX_site1583]
The “gcPBM binding intensity (ln)” value of the first is higher: 6.68 for the first, 6.47 for the second.

Going from “TTATAATACCTACAAAGTACAAACTTAAATATGAAC [XGTACX_site5684]” to “CAACAACAAATGAGAAGTACATAAATATTAACAATA [XGTACX_site4625]”, the “gcPBM binding intensity (ln)” value rises from 6.17 to 6.5.

First: AAGCTTAAAAATGGGGGTACGTCATAGGGATTCAAC [XGTACX_site8080]
Second: TTTGACACAATATTTTGTACGAAACTATTAATTCAA [XGTACX_site4853]
The “gcPBM binding intensity (ln)” value of the first is higher: 6.9 for the first, 5.96 for the second.

Compared with “AATATATAAACATATACACACAAAAACATATATATA [CACACA_site4855]”, “TAAAAAAAAACATGATGTACATAAAATTTTTTACTT [XGTACX_site7056]” is lower in “gcPBM binding intensity (ln)” value: 6.94 for the first, 6.33 for the second.

First: AAAATATATAAACGCACATATATTTATGTATATATA [CACACA_negctrl_site163]
Second: AAAAGGGAAAAAATTAAAATTATATATATATATATG [CACACA_negctrl_site137]
The “gcPBM binding intensity (ln)” value of the first is higher: 7.55 for the first, 6.41 for the second.

Going from “TACATATATTTAAGGAGTACAAAAAATAATGATAAA [XGTACX_site3539]” to “TTATTAGAGATGTTAAGATATAGGGATAATTTCGAT [XGTACX_negctrl_site395]”, the “gcPBM binding intensity (ln)” value falls from 7.13 to 6.49.

Compared with “ATATGTTTTAAGTGTACACATATAATGTATTTTGTT [CACACA_site4929]”, “AACCTATCTATAGGAACAATATATATATATATAATT [CACACA_negctrl_site1707]” is lower in “gcPBM binding intensity (ln)” value: 7.61 for the first, 6.48 for the second.

Compared with “TATTATGCTATTTAATGTACGGAATTTATATATATA [XGTACX_site564]”, “TTGCTCATTGAAATTATACACACCAAATATATAAAT [CACACA_site2482]” is lower in “gcPBM binding intensity (ln)” value: 6.81 for the first, 6.79 for the second.

Going from “TATACATAGAAACACACACACATAAATAAATATATA [CACACA_site1342]” to “TGGTATATAAAACACACACACATATGTATATATATA [CACACA_site926]”, the “gcPBM binding intensity (ln)” value rises from 6.79 to 7.66.

Compared with “CCTTAAATAATATATTCACACAATATAACAAAAATT [CACACA_site4892]”, “CATACACAGAAACACACACACATATATACATATATA [CACACA_site1094]” is higher in “gcPBM binding intensity (ln)” value: 6.41 for the first, 6.9 for the second.

Going from “TCATATATATTGAAATGTACTTATTTTTTCCTCATA [XGTACX_site6526]” to “AAAAAAAAAATTATATATATATCCCTTATTTTTTCT [TGCATGCA_negctrl_site151]”, the “gcPBM binding intensity (ln)” value rises from 6.31 to 6.67.

Compared with “AAAAAAAAGAATTAGGCACACAATTTTAATATAGGA [CACACA_site1522]”, “ACTACGAATGGTAGAGTGCAGTCTGGAGAAGAGTAC [GTGCAC_site9685]” is higher in “gcPBM binding intensity (ln)” value: 6.12 for the first, 7.19 for the second.
